We go through 22 molecules from article PMC12136788.

This is one part of the list.

The labels stand for the following.
B1: 94229784_94229904_786_CDS_ENSMUSG00000041912_ENSMUST00000166032|mouse|control|control (ssRNA)
RNA: GGGAGUUCUACAGUCCGACGAUCUUCCAGGGGUGUAGCUGGUCCCAUGCUAGAAUUGGUAUUUUUCCAUAAAGCUGCUUCUCCAGCUCCACCAGGCUCUGUCACUUCCUCUCUUCUCACACUGAUUGGCUGCUUUCGUGGGACCAACAGAGGAUUGAGCAUCA
B2: chr10:33190432:33190433:-_ENSG00000150093_ENST00000302278|hu_mus|hu_hu_hu_mus_True|8_8 (ssRNA)
RNA: GGGAGUUCUACAGUCCGACGAUCUACAUUUUCCAAACCUGCAUGUGAAUAAAACCCUGGCCACAGAGCCCCAAAACUACCCUACUGUGACUAAGAUGCUGCUGCUGUGAGCUUGGUGUUGCAAAAUUUUGCACGGGAGGAUUCCAACAGAGGAUUGAGCAUCA
B3: 21160581_21167256_384_CDS_ENSMUSG00000024317_ENSMUST00000052396|mouse|control|control (ssRNA)
RNA: GGGAGUUCUACAGUCCGACGAUCCAUUGCAGUCAGGAAACAUUUUCUACAGAAAACGUGCUGACAGGCCGCGGUCCGCACCGGCGUCUUGAGCACCUCCUGACAGACAGGGCAGUAGAAAUCAUCUUCCGUGUAGGACGUGGCCAACAGAGGAUUGAGCAUCA
B4: chr8:117878989:117878990:-_ENSG00000164754_ENST00000297338|hu_hu|hu_hu_hu_mus_True|1_108 (ssRNA)
RNA: GGGAGUUCUACAGUCCGACGAUCCCAGAGGCCCUCUUUUACUGAGGACAAAAUGUGCGUAGAACAUUUUUCUUAUUUGCUAUGAAAUAAGAAGAAACCUGGAUCUCGGCGGGGAGCCGGGAGGGGUGGGUGGCCCGGGGGAGGCAACAGAGGAUUGAGCAUCA
B5: chr15:99827826:99827827:+_ENSMUSG00000023025_ENSMUST00000100206|mus_hu|FALSE|FALSE (ssRNA)
RNA: GGGAGUUCUACAGUCCGACGAUCAUUCAUAGCAGCAGCAUUUGUUUUAUAAGAUCCUGGCGAAUUAAAGCCAUUCACAAAACUACCAUUGGGAAAGGGAGCCAGUGGUGUUUCAAAGUAAGGUGUAGGAUUUGGAGACCAAGACAACAGAGGAUUGAGCAUCA
B6: chrX:71549400:71549401:+_ENSMUSG00000019087_ENSMUST00000019231|mus_hu|mus_mus_mus_hu_False|48_88 (ssRNA)
RNA: GGGAGUUCUACAGUCCGACGAUCGCAGUAGGAAGAGGGAAGCUCUUCAUCCACUGUCGCUGCAGGGUGGGAAAGCAACAACACGGAACCAAUACUCCCCUCAACCCCCCCACUGGCACAGGGUCACACAAUCUGGGUCAAAGACAACAGAGGAUUGAGCAUCA
B7: chr2:29169617:29169618:+_ENSG00000163811_ENST00000407426|hu_mus|motif|central (ssRNA)
RNA: GGGAGUUCUACAGUCCGACGAUCCGUGUGACUGGCUGGCUGCAUCUGUCUUCAUUCUUCUUCACUCUCGUUUUCAGGAUCGGAAUCCGAAUCUCCAUUUAAUUCUUUUUCACUUGACACUUCUCUGUCCUCCUCAUUCUCUUCCAACAGAGGAUUGAGCAUCA
B8: chr14:62214197:62214198:+_ENSG00000100644_ENST00000337138|hu_mus|FALSE|FALSE (ssRNA)
RNA: GGGAGUUCUACAGUCCGACGAUCAAAGCAUUAUUUUCAUGUAAAACAUGAAAAAAAUGAGUAAAAAGUUUUCAACUGCCUAUGAUCAUGAUGAGAAUUUACUGCUUUCUUAAAAAAUUAUAUUGGCAUUUCAUUAAAAAUAAUCAACAGAGGAUUGAGCAUCA
B9: chrX:98862621:98862622:+_ENSMUSG00000034160_ENSMUST00000044475|mus_hu|mus_mus_mus_hu_False|28_68 (ssRNA)
RNA: GGGAGUUCUACAGUCCGACGAUCCUGCAUCUCCUUUAGAGUGUUUCCCAUAUUAGAGUAGGCAUCAGCAAAUGUAGGACUGAUUCGAAUAGCCUCCUUAUAAUGCAUCAGUGCUUCCUGCAGUUUUCCCUGCUGCUGCAGUACCAACAGAGGAUUGAGCAUCA
B10: chr10:128108517:128108518:-_ENSMUSG00000049858_ENSMUST00000054764|mus_hu|motif|central (ssRNA)
RNA: GGGAGUUCUACAGUCCGACGAUCAAAGUUGUGCAAGUCAUCCAGGGAAAGAGACAGUGACUGACCCCCAGGUGCUCCGGCGGCGUGUAAGCGAUAGGUGUCUGGAUCCAGGUUAGGUACAGGCAGAUGGUUCCGGGUGAAGAACAACAGAGGAUUGAGCAUCA
B11: chr1:193065829:193065830:-_ENSG00000023572_ENST00000367439|hu_hu|FALSE|FALSE (ssRNA)
RNA: GGGAGUUCUACAGUCCGACGAUCUUUUUUUAAAUAACACUGAUGAACUAGUGGGAGCAAUUUUCCUUCUUUGUGAAGCCUAUGAGUGUCAGUUGCACCUCCAAUAAAAGUACCAUUGACAAAUAUUCUUGGAACAGUUCUUUCCAACAGAGGAUUGAGCAUCA
B12: 25966313_25966433_3076_CDS_ENSG00000143970_ENST00000336112|human|control|control (ssRNA)
RNA: GGGAGUUCUACAGUCCGACGAUCCAUGGGAACAUCUUUGCCUUGAAGCAGCUGAGUCACUAAAGGAUUAUUAGCAGGGAUACUAGAGGUUGGUCUUAAAGUGGGUCCAUUCAUGUUUAAAGAAGUUCCUGGGGUUUUAAGGCUCAACAGAGGAUUGAGCAUCA
B13: chr4:131456860:131456861:+_ENSMUSG00000028911_ENSMUST00000053819|mus_mus|FALSE|FALSE (ssRNA)
RNA: GGGAGUUCUACAGUCCGACGAUCGGACCGAGAGCGUGUUUUUGAAGCCGAUUUUGACCUGGAGCGCGACUCUGCCGGGACAUUGGGUUUGGAUUUGGAGGUGGAUCUUGACCUGGCCCGGGGCUCUGGAUUGGGGGCCUCGCUCAACAGAGGAUUGAGCAUCA
B14: 97780863_97780983_4887_3pUTR_ENSMUSG00000028565_ENSMUST00000075448|mouse|control|control (ssRNA)
RNA: GGGAGUUCUACAGUCCGACGAUCUUUUUUUUUUUUUUUUUUUUUUUUUUUAGUGCACAUAUGUCAUCAUAAAGUAAUGCUCAGCUAAGUGCUAUAGGGAAGGCAAAGUCUGCUGCUGGCUAUAGGAAGUGACACCAUACACUGCAACAGAGGAUUGAGCAUCA
B15: chrX:20248820:20248821:+_ENSMUSG00000001924_ENSMUST00000001989|mus_mus|mus_mus_mus_hu_True|8_108 (ssRNA)
RNA: GGGAGUUCUACAGUCCGACGAUCGGCAAAGUCAGUCACCACAAAGUCAGGUUCUGCCAGUGAGGCCACCAAGGAUUUAAAGCUAAUCUUCUUAGGUACUUUGACCUGACUGACGAUGCCUCCACGGAUGUAGUCAGAGAAGUUCAACAGAGGAUUGAGCAUCA
B16: 102301495_102304970_659_CDS_ENSMUSG00000034685_ENSMUST00000049057|mouse|control|control (ssRNA)
RNA: GGGAGUUCUACAGUCCGACGAUCUUCCUGCUGGGUGCUGGCCGGUGUGAGCGAAGCCCAAAGCUGGCUGUAGGUGGAACUGACAGGCAGGCGGGCAGCUCUACGCUGGAACUGCACCCAGGGCUGGGAGCGGGCACCUGGCGACAACAGAGGAUUGAGCAUCA
B17: chr2:217001844:217001845:+_ENSG00000079246_ENST00000392132|hu_hu|hu_hu_hu_mus_False|28_38 (ssRNA)
RNA: GGGAGUUCUACAGUCCGACGAUCACCAACUUGAGGAUUAGAUCUUUUGUCAUAAGCAUAUCGGACGAUGGCGACCAUGUUUAACUCAUCCAAAGCAUGAAUCAGGGAGGAAAGUGCAACAGCUGCCGCCUCAUCAUCCUUUGCCAACAGAGGAUUGAGCAUCA
B18: chr7:141445308:141445309:+_ENSG00000106028_ENST00000265304|hu_hu|hu_hu_hu_mus_False|18_28 (ssRNA)
RNA: GGGAGUUCUACAGUCCGACGAUCUAUGAUUGUUGUUGCUUGCCGCCUCACAUUGUUUUUAUCCAUGUACUCGCCAUAGUCCACUUUCCCUUCCACAAAUAUACGAGACCCCUUUUUCACAUAUUGAUAUGCCACAUCUCUGAGCAACAGAGGAUUGAGCAUCA
B19: chr17:64801638:64801639:+_ENSG00000154229_ENST00000413366|hu_mus|hu_hu_hu_mus_False|1_78 (ssRNA)
RNA: GGGAGUUCUACAGUCCGACGAUCUAUAUAUAUAUAUACAUAUGUACACAUAUAUAGUAAGAGCCUAGUUAAACGUGUAAAGUAGCCAUUCAUUUUUAAAAUUACAUCUACAUUAAAAAAUUAAUAUAUCUGAUAGAGUGCCCACAACAGAGGAUUGAGCAUCA
B20: chr4:76721835:76721836:+_ENSG00000138768_ENST00000264904|hu_mus|hu_hu_hu_mus_True|58_68 (ssRNA)
RNA: GGGAGUUCUACAGUCCGACGAUCGUUUGGCUGGGGUUUCUGAGACGCUCUGGAAUAUAACUCAUGUUGCUAAUAAAUCCUAGUUUCCUCUAUGAAAUUCUCUUUGCCAAUCCUCUUCUCUAUUAGUUGCUUUAGUUUCUCUUUCAACAGAGGAUUGAGCAUCA
B21: chr9:66341014:66341015:+_ENSMUSG00000038664_ENSMUST00000042824|mus_mus|FALSE|FALSE (ssRNA)
RNA: GGGAGUUCUACAGUCCGACGAUCCCAUGCAGCACUGUGGCAACGGCCCGCUGAAAUCUGGCGGAUGUUUUUCCCUUGCAGAACUGUUACCAGGGUUGGUUCUCGAACGUGGUUGGUGUGGCCUAGGCCAAGCUGCCCUUCUGACAACAGAGGAUUGAGCAUCA
B22: chr1:93451714:93451715:+_ENSMUSG00000026311_ENSMUST00000027538|mus_mus|FALSE|FALSE (ssRNA)
RNA: GGGAGUUCUACAGUCCGACGAUCGCCUUCCCCACUAGGGCAAUCACCAGGCUCAGCCCAUGCUGCACACAUUGCCAGGAAGAAUCCAAAACAGAGAGACUGAAGAGGAACAAAAUUAAGUUUGUAUGUGCCUCUCAGUUGACACAACAGAGGAUUGAGCAUCA

This assay deals with T1, UNK ZnF1-3 (human, UniProt Q9C0B0 31-174).
T1 sequence: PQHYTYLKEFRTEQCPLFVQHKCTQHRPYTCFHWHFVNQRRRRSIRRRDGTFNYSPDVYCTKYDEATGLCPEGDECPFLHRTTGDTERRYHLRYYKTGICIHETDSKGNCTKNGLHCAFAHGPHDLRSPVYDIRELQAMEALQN
The assay is described as follows: nsRBNS (natural sequence RNA bind-n-seq); RBNS binding buffer (assumed for nsRBNS): 25 mM Tris pH 7.5, 150 mM KCl, 3 mM MgCl2, 0.01% Triton X-100, 500 ug/ml BSA, 20 U/ml SUPERase-In, 4 C; UNK is unkempt and MSI1 is Musashi-1; names of the RNAs are library labels; protein concentration not given here; high values mean tight binding.
In turn, B1 came in with a binding signal of 0.766 enrichment R.

B2: the binding signal is 1.24 enrichment R.

In the case of B3, the binding signal was found to be 1.14 enrichment R.

As for B4, the binding signal was 1.5 enrichment R.

Turning to B5, the binding signal came out at 2.15 enrichment R.

B6 gave a binding signal of 1.04 enrichment R.

Turning to B7, the binding signal is 0.373 enrichment R.

Consider B8, for which the binding signal was 1.83 enrichment R.

Molecule B9 displayed a binding signal of 1.01 enrichment R.

As for B10, the binding signal was found to be 2.16 enrichment R.

In turn, B11 registered a binding signal of 0.912 enrichment R.

B12 showed a binding signal of 1.35 enrichment R.

On to B13, for which the binding signal was 1.21 enrichment R.

B14: the binding signal is 1.14 enrichment R.

B15 registered a binding signal of 1.08 enrichment R.

B16: the binding signal amounted to 0.249 enrichment R.

The molecule B17 yielded a binding signal of 1.61 enrichment R.

On to B18, for which the binding signal was 0.72 enrichment R.

The molecule B19 gave a binding signal of 1.82 enrichment R.

Regarding B20, the binding signal was 0.415 enrichment R.

As to B21, the binding signal turned out to be 0.682 enrichment R.

The molecule B22 showed a binding signal of 1.32 enrichment R.
